Test results as given in the supplement of paper PMC4166925.
± gives the standard deviation of the averaged measurements. Over roughly 33,000 sequences, “E-score (dimensionless, -0.5 to 0.5)” has its median near -0.046; the highest 2% begin near 0.36. Some of the results follow.

Each sequence was assayed on T1, SpTbr T-box DNA-binding domain (GST fusion) (assay: PBM E-score of 8-mer (E-score (dimensionless, -0.5 to 0.5)); Tbr is Tbrain of the sea star Patiria miniata (Pm) or the sea urchin Strongylocentrotus purpuratus (Sp); higher = stronger binding preference; most listed sequences are background and not binding sites). Settings: the construct has about 5 more residues each side.
T1 sequence: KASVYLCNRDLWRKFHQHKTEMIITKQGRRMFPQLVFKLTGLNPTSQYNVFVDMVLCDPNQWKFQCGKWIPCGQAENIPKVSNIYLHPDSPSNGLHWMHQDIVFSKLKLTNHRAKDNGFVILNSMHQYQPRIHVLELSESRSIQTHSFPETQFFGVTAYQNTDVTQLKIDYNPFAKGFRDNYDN
Procedure, shortened: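 GST-fused Tbr T-box DNA-binding domains (the whole T-box plus about five flanking residues) were expressed in BL21 E. coli at 20 °C and purified by glutathione affinity chromatography. Universal Agilent oligonucleotide arrays were made double-stranded by primer extension, incubated with 200 nM protein in PBS (pH 7.5), then scanned and quantified. Every ungapped 8-mer was scored from probe intensities. The Universal PBM Analysis Suite gave each word an enrichment E-score, averaged over duplicate arrays.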

Sequence	PBM E-score of 8-mer
GGCGATCA	0.0266 ± 0.025
AGATTGGA	-0.111 ± 0.024
CCTATACC	-0.253 ± 0.0033
GAAGATGC	-0.189 ± 0.027
ACGCGGTG	0.169 ± 0.074
AATACAAA	-0.191 ± 0.039
CCGATATC	0.0737 ± 0.065
AAGGGCTG	-0.183 ± 0.042
AATTGCCA	0.162 ± 0.044
CCATAGCG	-0.0419 ± 0.018
ATTGTCCG	-0.22 ± 0.019
AACACCTC	0.481 ± 0.0063
CGCATCGA	0.0384 ± 0.039
TATCACCA	0.154 ± 0.037
AGCCAGCT	-0.0946 ± 0.078
GGTACAAA	-0.143 ± 0.049
CTCGATGA	-0.0664 ± 0.017
CTCGCCCA	0.0556 ± 0.083
TAAAGCAA	-0.225 ± 0.083
CATTGCAA	-0.0503 ± 0.024
AATGCCGT	-0.122 ± 0.032
AGGACGAA	-0.278 ± 0.022
CATGAGCC	-0.132 ± 0.007
AATCACTA	-0.0801 ± 0.0095
ATTGGGGA	-0.114 ± 0.062

Sequence	PBM E-score of 8-mer
CGCAGTAG	-0.128 ± 0.026
AGCCTTCA	-0.0495 ± 0.025
CTAGTGAC	0.244 ± 0.03
TGCAGCCA	0.0121 ± 0.016
AACCACTA	0.0288 ± 0.049
GCTTAACC	-0.0161 ± 0.078
GGACGGGA	-0.121 ± 0.035
GAGTAAGA	-0.0459 ± 0.014
ATCACGGC	0.129 ± 0.013
GTTCCTGA	0.0353 ± 0.081
AGTGACGC	0.348 ± 0.022
AATATGAT	-0.116 ± 0.016
CGCTTTTA	-0.104 ± 0.029
ACGATCGA	0.109 ± 0.033
AGTGCAGC	-0.0647 ± 0.09
CTAGAGGC	-0.128 ± 0.021
CCGTCTCG	-0.0513 ± 0.098
GTGCCGGA	0.206 ± 0.02
AGATGCTA	-0.00214 ± 0.00037
ACACGTGG	0.299 ± 0.02
AAATGCAT	-0.157 ± 0.043
ATGACAGG	-0.0503 ± 0.027
CTGTCGGA	0.0257 ± 0.034
GGCATAAC	-0.0272 ± 0.059
AACATGGG	-0.139 ± 0.053

Sequence	PBM E-score of 8-mer
ACAAGTCA	0.0508 ± 0.05
TACAGTGA	0.121 ± 0.036
AGCAAGGC	-0.181 ± 0.059
CCAATCGC	0.164 ± 0.045
TCCAGCCA	-0.0223 ± 0.0094
ACCCTTGG	0.0586 ± 0.027
TGCAGGCA	-0.0688 ± 0.13
CGCATAAC	-0.013 ± 0.0046
ATTACGTC	-0.202 ± 0.081
AACTTGCT	-0.0229 ± 0.032
TATTCCGA	-0.289 ± 0.044
ACCTGGAG	-0.00128 ± 0.1
TACTGCAA	0.0535 ± 0.029
CGAAACAC	0.274 ± 0.011
GACTTCCC	-0.0358 ± 0.13
GCTCGACA	0.15 ± 0.033
CAGGCCTC	-0.159 ± 0.029
CACGATTC	0.151 ± 0.033
AACAAGGC	0.107 ± 0.049
CACGCGGC	0.165 ± 0.07
CAATACTC	-0.0432 ± 0.015
ATGAGCTC	-0.101 ± 0.039
CGATGGGC	-0.146 ± 0.025
CTCTGTTC	0.0449 ± 0.0023
CTAGAAAA	-0.139 ± 0.011

Sequence	PBM E-score of 8-mer
GGTAAAAA	-0.0109 ± 0.001
GCTAAAGA	0.0611 ± 0.0078
TCTGATAA	0.0597 ± 0.035
TATCCAAA	-0.372 ± 0.0061
AAGGACAC	-0.0247 ± 0.1
ACTGTCGC	0.284 ± 0.037
GGCTTCGA	-0.093 ± 0.07
CACAAAGA	-0.0119 ± 0.08
ACGTAGAT	-0.143 ± 0.093
AGGACCAC	-0.0512 ± 0.13
GATTCCAC	-0.0308 ± 0.059
GTCCTTTA	-0.246 ± 0.0032
GGCGGGAC	0.0322 ± 0.0027
ACCTCGTC	0.191 ± 0.09
CGCGCCAG	0.186 ± 0.0071
GTGCCTCA	0.0239 ± 0.0022
GGTGGAAA	0.151 ± 0.036
GGATAATA	-0.101 ± 0.063
AAAGATTC	-0.0748 ± 0.026
AAGGTGAC	0.381 ± 0.026
GTCGCAAC	0.305 ± 0.015
CTAACATA	0.0303 ± 0.024
GGCACGGA	-0.095 ± 0.035
CCTCTCTA	0.0363 ± 0.052
CTCTTGTA	-0.106 ± 0.021

Sequence	PBM E-score of 8-mer
GCGCGTGA	0.344 ± 0.033
AAAACCAC	-0.0027 ± 0.012
GGGTACAC	-0.0838 ± 0.098
CTCCATAC	0.04 ± 0.081
ACACTAGG	0.0471 ± 0.0091
GACGCTTA	0.117 ± 0.033
GAAGCTCC	-0.318 ± 0.042
CCCAAGCA	-0.215 ± 0.049
CATACAGC	-0.176 ± 0.052
GCTCCAGC	-0.22 ± 0.011
AGTCGTAA	-0.0364 ± 0.14
GCCACGGC	-0.0294 ± 0.015
GGGAGCAA	0.0394 ± 0.053
GCCGGAAA	-0.169 ± 0.063
TAGTCACA	0.252 ± 0.032
CTAAGGAG	-0.0981 ± 0.052
CCCGTATC	0.03 ± 0.011
GAGCCTCA	-0.08 ± 0.062
GGTTGCAC	0.179 ± 0.051
CATCCTAC	-0.0304 ± 0.0046
AGCCACTG	-0.161 ± 0.025
GAATCTAA	-0.0155 ± 0.12
AGCTGGCC	-0.194 ± 0.008
GATAGGGC	-0.0955 ± 0.047
GCGATTTA	0.267 ± 0.011

Sequence	PBM E-score of 8-mer
AAAGGAAT	-0.187 ± 0.0022
CCCCCGAA	-0.231 ± 0.0096
CAGTAGAC	0.0341 ± 0.037
GAATTAAC	-0.11 ± 0.015
GGTGGTTA	-0.0313 ± 0.02
CTGGTTGC	0.0436 ± 0.051
AACACAGA	-0.0143 ± 0.056
CACGGCGC	0.0862 ± 0.026
ACGGCTAT	-0.184 ± 0.0047
AAAATTGG	-0.204 ± 0.11
GGGCTCGA	-0.0858 ± 0.064
CCGTTGTC	0.247 ± 0.011
GAGCACGC	-0.103 ± 0.091
AAAGTCGA	-0.0294 ± 0.031
AACACGCT	0.185 ± 0.073
AATCATAC	-0.157 ± 0.004
ACCGTCTA	-0.0953 ± 0.012
CTGTGTCC	-0.0669 ± 0.021
CTTTTCTC	0.0829 ± 0.089
ACTCTAGC	0.0394 ± 0.066
ACTCGGTA	-0.137 ± 0.075
AAGATCAG	-0.263 ± 0.036
TAGCCCTA	-0.243 ± 0.061
CCTATTCG	-0.116 ± 0.11
CTCTGATA	0.0194 ± 0.0074

Sequence	PBM E-score of 8-mer
CGCGCAGC	0.00958 ± 0.11
CAAGTCTA	-0.11 ± 0.011
TAGGGCGA	-0.00769 ± 0.086
TAATGAGA	-0.108 ± 0.049
CCTGGTCC	-0.00359 ± 0.025
AGTGATTA	0.132 ± 0.017
AATCTGAC	-0.0521 ± 0.077
CCCTCCGA	-0.0709 ± 0.059
GGCTCTCA	0.0783 ± 0.047
CATACTTA	-0.199 ± 0.0057
CGACTATC	-0.00152 ± 0.0027
ATAGAAAT	-0.0474 ± 0.0075
ATCCCCAA	-0.0557 ± 0.04
ACTTACGA	0.142 ± 0.032
AGGGTGGA	0.0535 ± 0.0032
ATAGTATG	-0.0917 ± 0.041
ATAACCTC	-0.0208 ± 0.0088
CAGTGTAG	-0.0716 ± 0.012
CACCCGCC	0.218 ± 0.069
GGAACTAC	0.0389 ± 0.024
CGGGAAGC	-0.0919 ± 0.059
GAAAAACA	-0.0565 ± 0.072
CCCTGGCA	-0.00203 ± 0.057
TAGGAGGA	-0.231 ± 0.054
ACCTCAAA	0.0838 ± 0.059

Sequence	PBM E-score of 8-mer
CTTACGGC	-0.14 ± 0.017
AAACCGGA	-0.114 ± 0.078
AACCTTTA	0.000765 ± 0.041
CCGTCCTC	-0.238 ± 0.029
GCTTTGCA	0.0233 ± 0.069
CTGGCGCA	0.0297 ± 0.041
AACACCCC	0.39126 ± 9.9e-05
CCAAGTAA	-0.21 ± 0.095
GTGCCCAC	-0.0496 ± 0.09
CTTTTAGA	-0.198 ± 0.021
GACGAGTA	-0.14 ± 0.054
AGAGTTAT	0.0165 ± 0.045
GACACAGC	0.102 ± 0.062
CCCCCGCC	0.0682 ± 0.0058
CGATGTCA	0.1339 ± 0.00055
AACGCTAG	0.0849 ± 0.072
CCATCATC	-0.119 ± 0.067
ACGTCTCT	-0.0624 ± 0.06
AGAACGAG	-0.00895 ± 0.029
TCCAGGCA	-0.379 ± 0.028
GCTCACAA	0.174 ± 0.018
ATATATAT	-0.045 ± 0.088
ATATCAAC	0.0891 ± 0.0058
CGTCCAAC	-0.116 ± 0.024
CTAGGCTC	-0.126 ± 0.0024

Sequence	PBM E-score of 8-mer
ACCGCGTG	0.281 ± 0.0042
AAGACACA	0.0932 ± 0.0087
GTCCCGAA	-0.214 ± 0.037
CAGCATGA	-0.154 ± 0.015
AAATATCT	-0.032 ± 0.06
ACCGGGTA	-0.164 ± 0.0056
TCCTACAA	-0.205 ± 0.071
AGTCGCAG	0.0537 ± 0.061
ACCAGGCT	0.0267 ± 0.043
GGTTGGAA	-0.0526 ± 0.071
TGCCCACA	0.0199 ± 0.1
GCCCCGTA	-0.0992 ± 0.0088
GGCCACTA	-0.0216 ± 0.031
CAACCCAA	-0.0957 ± 0.059
ATGAGTAG	0.0981 ± 0.045
CGAGACAG	-0.025 ± 0.054
ACGTTGTC	0.138 ± 0.015
GAAAGTTA	-0.154 ± 0.04
GCCCTAGA	-0.0999 ± 0.022
